The list shows a part of the results.

The text below walks through data of the supplement of paper PMC11417369.

In this test the test system is PF3D7_0420300 AP2 domain 1 (GST-tagged). The test can be described thus: gcPBM binding intensity (ln(normalized median fluorescence intensity)); higher = stronger DNA binding. In short, it runs like this:
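Binding intensity is the highest Masliner-normalised natural-log median intensity over replicate spots in either probe orientation. To obtain it, GST-tagged P. falciparum DNA-binding domains made in E. coli were incubated for 1 h on an Agilent 4 × 180k array of primer-extended double-stranded 36-bp intergenic genomic probes plus negative controls. Detection used Alexa488 anti-GST antibody with scanning at 488 nm.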
With “TACAATTCGTAATACACACACATATAAATAAATATT [CACACA_site7720]”, the “gcPBM binding intensity (ln)” value amounted to 9.77.

“ATATAAAATATGTATGAGGAATAAAATTAAAAAAAA [XGTACX_negctrl_site173]”: the “gcPBM binding intensity (ln)” value came to 9.36. Regarding “TTTTTTTTGAAGAATACATGCATATTTTCTATATTC [TGCATGCA_site43]”, the “gcPBM binding intensity (ln)” value worked out at 9.15. The value for “ATAAAAAAAGATGAACGTACATATATTTTAAAAATC [XGTACX_site5950]” was 9.32.

As to AATATACAAATAAAGGTGCGAGATATTTTTACTTTT, the “gcPBM binding intensity (ln)” value is 9.41. Regarding “ACAATATGCAAAAAGTGTACACATTCATTTATATAA [XGTACX_site1061]”, the “gcPBM binding intensity (ln)” value was 9.29. The value for “TATTAAATATATATTACATGCAAAAAAAAAAAACAA [TGCATGCA_site705]” was 9.32; that for GTAAATATTTGTTGGGTGCTATCAATTATTTCAAAG was 9.37; that for “TGTGTATATTATATGTGTACATATCAATGTTTATAT [XGTACX_site1885]” was 9.47.

“TAATATTAAATAAATAAAATATATAATATATATATA [XGTACX_negctrl_site49]”: the “gcPBM binding intensity (ln)” value was found to be 8.96. In the case of “TAATATATAACGTGCACACACACATCTACGTATGAA [CACACA_site5080]”, the “gcPBM binding intensity (ln)” value amounted to 9.89. The value for TGGCATTAAAATTTAGTGCATATATCTTAGCATGGG was 8.96. The value for “AAAAATAAAAGGTGTGCACACAAAAATATATATATA [CACACA_site8507]” was 9.92; that for “TATTGTTATTAAAAATGTACATATAAATTTCTTATT [XGTACX_site1409]” was 9.1; that for GTATGATGCATAAGAGTGCATAAGGATATTTCTTCA was 9.11. The same measure for “AATTTAAAAAATAACAGTACATAAAATATATACATA [XGTACX_site7917]”: 9.27. For the sequence “CATGCTACATCTTATTGTACTTATCTAATGTTAGTA [XGTACX_site1863]”, the “gcPBM binding intensity (ln)” value stood at 9.31. The same measure for “AAAAAGGAGAAACACACACACACACCCATATATATA [CACACA_site905]”: 10.2; for “AGGCAATATTATATATATATATATATATATATATAT [CACACA_negctrl_site826]”: 9.2; for “TCTTTTTACACCTCTTACATAAAACAAAATAAGGGG [XGTACX_negctrl_site12]”: 9.57. In the case of “TATACATGTTATGTACATCTAATCACACGTGCAATA [CACACA_negctrl_site1267]”, the “gcPBM binding intensity (ln)” value is 9.1. For “TTGTAAATTTACATTTGTACATAAATATATTAATAT [XGTACX_site3969]”, the “gcPBM binding intensity (ln)” value worked out at 9.13. The value for “TGTATGTTTGGGTGCACACATAAATATTATATATAG [CACACA_site3397]” was 9.35. The same measure for “ATATATATAAAACACACACACACATGGTTTAAAACT [CACACA_site4219]”: 10.2. The same measure for “TGCAGTCTGGAGAAGAGTACACAGTATCTGGTAACA [XGTACX_site2037]”: 9. As for “TATATATTCATATGTTGTACATAAATACAAATAAGA [XGTACX_site5602]”, the “gcPBM binding intensity (ln)” value turned out to be 9.11.

Consider “AACAGAATAATACTAAATGAACGATTTCTCTTTATG [GTGCAC_negctrl_site376]”, for which the “gcPBM binding intensity (ln)” value turned out to be 9.28. On to “AAAGGTAAATGTAAATAAATAAATAATAAATATATA [GTGCAC_negctrl_site681]”, for which the “gcPBM binding intensity (ln)” value was 9.35. The same measure for “ATTAATATGAATAAAACACACATATATAATTTGTAA [CACACA_site1929]”: 9.44; for “AAAAAAAAAAAGAAATGTACATGAATATTTTAAATG [XGTACX_site4069]”: 9.12; for “ATTATTATTTTACGTAGTACATATAATAAATATTTA [XGTACX_site8934]”: 8.97. The value for “GGAATATTATTTCAATGTACATTTTGAGATTAGAAT [XGTACX_site8187]” was 9.04; that for “TATCCATATTTGTTCACACACACACGGATTTATATA [CACACA_site7649]” was 10.1; that for “TTATTTCTAATTCGTTGTACAATATATAATATATAT [XGTACX_site5861]” was 9.23. On to “TTGATAGACACATGCACACATGCAATACTTTATTCA [CACACA_site3000]”, for which the “gcPBM binding intensity (ln)” value was found to be 9.34. The same measure for “TAGGTGTTAAAAAATACACACACAAAAAAAAAAAAA [CACACA_site7927]”: 9.6; for ACATTTTTGGTTTTAGTGCAATATGAATTATTTTAT: 9.35; for “TCTTCCATTTTTATTACACACATAAATATGAAATCG [CACACA_site3471]”: 9.53. Consider “CCTTTAAGCAAAAACACACACACATATATATATATA [CACACA_site348]”, for which the “gcPBM binding intensity (ln)” value was determined as 9.78. Regarding “ATTATTTTATATACATGTACATATTATATATAAAAG [XGTACX_site2735]”, the “gcPBM binding intensity (ln)” value turned out to be 9.02. The same measure for “TATAAAATAAAAAATATATATATGTATATATATATA [TGCATGCA_negctrl_site163]”: 8.96; for TATAAGTGCTCAACGGTGCATTTATAGAAGTTAAAC: 9.16; for “TTTCTTTTTTAGAGGTGTACACGTAGGCCTCTTGGA [XGTACX_site4760]”: 8.82. The value for “TATTTATACACGCACACACACTTATACATTTATATA [CACACA_site7543]” was 10.1.

Consider “TTAGATATTAATATATGTACATATTAATATATTTAC [XGTACX_site7119]”, for which the “gcPBM binding intensity (ln)” value stood at 9.04.
